This note sets out measurements from the supplement of paper PMC3334620.

In all, about 33,000 sequences were measured (“E-score (-0.5 to 0.5)”: median about -0.056, highest 2% from about 0.38 on). This is one part of the list.

The experiment concerns the target Stb4 (UniProt P50104). Description: PBM E-score (8-mer binding enrichment) (E-score (-0.5 to 0.5)); higher = stronger / more preferred TF binding; most listed sequences are background and not binding sites. Conditions: protein concentration: 200 nM; construct: GST-DNA-binding domain. In a few lines: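 PURExpress in vitro transcription/translation supplied GST-tagged yeast transcription factors, either full-length or DNA-binding domain. Applied at about 100-200 nM to universal all-10-mer Agilent arrays double-stranded by primer extension, the bound protein was detected with fluorescent anti-GST. E-scores, modified Wilcoxon-Mann-Whitney statistics, were given by the Universal PBM Analysis Suite to ungapped eight-base words pooled with their reverse complements after masliner normalisation.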
For CACTATGG, the “PBM E-score” value was -0.127.

Regarding CAATCCAG, the “PBM E-score” value is -0.14.

Regarding CTTTACGC, the “PBM E-score” value was -0.175.

AGCGTCAT: the “PBM E-score” value is -0.161.

Regarding CAAAGCGG, the “PBM E-score” value worked out at 0.181.

Turning to CTCCCCGA, the “PBM E-score” value is 0.282.

For AAACTTCA, the “PBM E-score” value is -0.0559.

In the case of ACATAAGT, the “PBM E-score” value is -0.123.

With GATTAAGC, the “PBM E-score” value worked out at 0.146.

As to CAAATCTG, the “PBM E-score” value is -0.245.

For the sequence AATTTAGC, the “PBM E-score” value worked out at 0.0778.

Take AAAGTTCT: the “PBM E-score” value was determined as 0.0237.

On to ACGGCGAT, for which the “PBM E-score” value worked out at 0.021.

With CACTACAA, the “PBM E-score” value was -0.122.

ACGCGACG: the “PBM E-score” value is -0.13.

Regarding AAAGACCG, the “PBM E-score” value was 0.135.

Regarding CCGACCTA, the “PBM E-score” value is 0.296.

GAAACTGA: the “PBM E-score” value was -0.0639.

Consider ATCGAGAT, for which the “PBM E-score” value is -0.134.

For the sequence GCACTCCC, the “PBM E-score” value was -0.0044.

On to TCGGTCAA, for which the “PBM E-score” value was 0.125.

Regarding CGTCGCTA, the “PBM E-score” value was -0.115.

Turning to CGCCTTGA, the “PBM E-score” value is -0.043.

On to GCCACCGC, for which the “PBM E-score” value was -0.0977.

As for ATCGGTTA, the “PBM E-score” value stood at 0.368.

Regarding GAAGAAAA, the “PBM E-score” value turned out to be 0.0784.

Turning to CTTTATTC, the “PBM E-score” value was -0.0862.

Regarding CCCTGGCC, the “PBM E-score” value was -0.216.

Regarding CGACCTAA, the “PBM E-score” value is 0.174.

On to CGAGTCTC, for which the “PBM E-score” value is 0.0605.

Regarding GTTTATAA, the “PBM E-score” value was 0.21.

In the case of ACCCGTGC, the “PBM E-score” value is 0.188.

For CATAGTCA, the “PBM E-score” value was -0.202.

With CCTGCAGG, the “PBM E-score” value was -0.0996.

As for CAAGATTG, the “PBM E-score” value was -0.236.

With CACCCCTC, the “PBM E-score” value is 0.125.

Turning to AGAAGAGG, the “PBM E-score” value is -0.195.

Regarding ATAACTAC, the “PBM E-score” value is -0.102.

For ACCTAAAC, the “PBM E-score” value was 0.138.

Regarding CCCATACA, the “PBM E-score” value is -0.173.

Regarding ATGCCTGG, the “PBM E-score” value is -0.26.

In the case of ACTTGCAT, the “PBM E-score” value was -0.0182.

GCTACGTA: the “PBM E-score” value was -0.0806.

With ATTGCAGC, the “PBM E-score” value was -0.0905.

In the case of ACAGCGGG, the “PBM E-score” value came to 0.0241.

As to CAGAACGA, the “PBM E-score” value is -0.305.

Take CATAGGAC: the “PBM E-score” value is -0.271.

For the sequence AGATCGCC, the “PBM E-score” value was -0.194.

Regarding AGAAACCA, the “PBM E-score” value was -0.156.

GGGGAAAA: the “PBM E-score” value amounted to 0.0659.

Regarding ATCCTAGC, the “PBM E-score” value was -0.239.

Take CGGCTGCA: the “PBM E-score” value is 0.299.

For the sequence GTTCTACA, the “PBM E-score” value was -0.196.

Take CAGGTGGA: the “PBM E-score” value is -0.236.

On to TGTAACAA, for which the “PBM E-score” value is -0.183.

On to ATTCTCAG, for which the “PBM E-score” value is -0.183.

Regarding ATCAGAAA, the “PBM E-score” value was -0.165.

Turning to AACGCCCC, the “PBM E-score” value was found to be 0.0739.

For the sequence ACTTTCAT, the “PBM E-score” value is -0.0733.

As for AATAGGGC, the “PBM E-score” value was -0.139.

Take CTTAACTA: the “PBM E-score” value is -0.164.

For the sequence ATCTTAAG, the “PBM E-score” value was -0.187.

For the sequence CTAGTGAG, the “PBM E-score” value is -0.0255.

In the case of CGTCTGAC, the “PBM E-score” value is -0.0606.

With ATACTTCA, the “PBM E-score” value is -0.271.

For ATCCCCGA, the “PBM E-score” value was 0.326.

In the case of CAATAAGA, the “PBM E-score” value is -0.0142.

For the sequence ACGGCTCT, the “PBM E-score” value was 0.0596.

Consider ATCTTAAA, for which the “PBM E-score” value is 0.0841.

CCTTGCTA: the “PBM E-score” value was -0.191.

Turning to GAGCCCCC, the “PBM E-score” value is -0.168.

With CAAGCGGA, the “PBM E-score” value was 0.206.

Consider AGCTGAGC, for which the “PBM E-score” value was -0.155.

CTGCGATC: the “PBM E-score” value was -0.0408.

In the case of AAAGGCAT, the “PBM E-score” value was found to be 0.0246.

In the case of AATCCTTG, the “PBM E-score” value was -0.109.

On to GGAGGCGA, for which the “PBM E-score” value is -0.0436.

As to TCGCCAAA, the “PBM E-score” value was -0.0978.

Consider ATTTGCTG, for which the “PBM E-score” value was -0.125.

As for CCTCATTA, the “PBM E-score” value was -0.163.

On to AATATCAC, for which the “PBM E-score” value stood at 0.0295.

Turning to AAGTCAAC, the “PBM E-score” value is -0.27.

With CAGCGACC, the “PBM E-score” value was -0.103.

Regarding AGTTCTCG, the “PBM E-score” value amounted to 0.0181.

AAAGTAAA: the “PBM E-score” value was -0.123.

As for ATTGCATC, the “PBM E-score” value is -0.0187.

For ATGAGTAA, the “PBM E-score” value was 0.0162.

With AGAAAGTG, the “PBM E-score” value is -0.0811.

In the case of CTTTTCCC, the “PBM E-score” value is 0.0541.

In the case of ATACAATG, the “PBM E-score” value is -0.0129.

As to GGGGCACC, the “PBM E-score” value was 0.0181.

As to AACATGGC, the “PBM E-score” value is -0.202.

Turning to AATGGGAA, the “PBM E-score” value is -0.223.

Turning to AAGAAGAT, the “PBM E-score” value was found to be 0.0368.

For the sequence CGGTGAAA, the “PBM E-score” value is 0.216.

With GCTCCACA, the “PBM E-score” value is -0.0061.

As for GAAAAAGC, the “PBM E-score” value is 0.186.

Turning to CAACTGAC, the “PBM E-score” value was -0.102.

ACGAAAAG: the “PBM E-score” value is -0.23.

Take ATCACAAC: the “PBM E-score” value is -0.0964.

Consider GTACATAC, for which the “PBM E-score” value was 0.0415.

AGAGCCTA: the “PBM E-score” value is -0.297.

Consider AGCGCCGA, for which the “PBM E-score” value amounted to 0.371.

On to TCTGCAAA, for which the “PBM E-score” value is -0.122.

As for GCAATAGA, the “PBM E-score” value was -0.0983.

As to AACACGTT, the “PBM E-score” value was -0.218.

Regarding AAGAAATA, the “PBM E-score” value is -0.0625.

As to ATGCTATA, the “PBM E-score” value was -0.228.

As to CTCCTTTA, the “PBM E-score” value is -0.116.
